Some of the results follow. At the low end of the ranking, values are background and their order means little. The protein was read in a cell extract, so binding may be indirect.
biological target: T1, HNF4alpha8 (COS-7 nuclear extract) (UniProt P41235-5); test: protein-binding microarray; settings: COS-7 nuclear extract on double-stranded Agilent 4x180k PBM; binding buffer, salt, pH and temperature not given; high values mean tight binding; double strand, one strand shown; sequences stand for … in …GCCTAGGGAGATTAGAGTATCGGTCGA
T1 sequence: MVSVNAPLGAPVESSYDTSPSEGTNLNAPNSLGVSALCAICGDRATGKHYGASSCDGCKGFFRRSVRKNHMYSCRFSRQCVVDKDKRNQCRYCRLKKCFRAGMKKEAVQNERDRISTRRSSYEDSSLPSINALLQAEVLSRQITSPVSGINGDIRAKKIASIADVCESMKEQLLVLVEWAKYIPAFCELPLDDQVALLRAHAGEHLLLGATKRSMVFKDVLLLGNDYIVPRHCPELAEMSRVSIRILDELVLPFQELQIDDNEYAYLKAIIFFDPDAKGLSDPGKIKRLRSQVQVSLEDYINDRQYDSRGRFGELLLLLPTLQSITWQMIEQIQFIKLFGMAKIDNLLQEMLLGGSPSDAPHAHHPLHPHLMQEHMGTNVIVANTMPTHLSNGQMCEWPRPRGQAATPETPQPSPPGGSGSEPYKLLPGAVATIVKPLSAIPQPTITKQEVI

Sequence	binding signal (log2 normalized intensity)
CCCGGACCCTGACTCTGCAGCCGAACCGGC	-1.27
GCTGGAATTTGAACCCAAGCAATCTGGCTG	3.42
TAGAAAACAAGTTAGACAGTGCCTATGTTG	-1.13
CTGGATGGTGTTTGATCTGATGTACCCAGC	2.18
TATATGAGGAAGGGTGTGTAAAACAGGTGA	0.654
GGTATGAGGCCAGTTTTCCTAAGGGGCTTT	-1.25
GAGATCTGAATGGAATGAAGATACTGGATA	-1.32
CTATGACCTTTCACCTTTTAGCTTGGCATG	5.08
TGCTCCACCCTTCTATCCCCTTATCTAAAT	2.58
GAGGTGACGGCTAAGAGAAATCCACACAGC	-1.39
AGGTCATTCATGTGCAGGTTGGAATATGTG	2.39
CGCTGGGGAAGAGTGTGACTGTGGTACTCC	0.589
AGTCTGCCTCTATGTGATCAGATGTGGACA	1.94
TCCACACAGCACTGACCTTTGAGAGTCAAC	4
TTCTTGAGGCATTTATTACAGAGAGGGGGA	-1.27
CAATAGCAAAACCTGATGTTTGGACAGTGT	1.59
GACCAAGCAGCTGTTTGACCAAAGCTACTC	-1.31
AGTTAGTTTACTTAGGCCTCCCAGAACGTG	1.13
GCTATCCCGGCCAACGGTCGGAAGGGAGGT	-1.29
CTTGGACTTTAACCTTTAGATTACTAGGAA	6.61
GGGGCATAGCCCATGCAAATACTCGGTGAC	-1.25
GTATGCTATTAGTGGTTAAGTTTTCGAGGA	0.998
TCCAAGGAACCTCACGCGCTCCCTGTTTAG	-1.45
TCACCACATCTCCCACTGTGGACTCTGAGC	5.49
CCTGCGTCTTATATAAGCTATTACTTGATT	0.397

Sequence	binding signal (log2 normalized intensity)
GGAACAACTTCGGGAATCTGACCTTTGGGA	5.65
GTGGCAGCATTGTGCTGAAAAGACTTCACA	-1.34
TGGGGAAGTCTCTAGATGGGGTTGAGCAGA	-1.36
CTGAGGTTAAAGTCCACATTCTTTAGCATA	6.12
TTTTCCCGGTTTGTTCCATGCCACAGAATC	0.811
TTCTCTGTGACCTTTGGAAGGTGGGGGAGG	4.92
TCTCAGGGAGTGCAAACTTCTTTGAAGAAG	0.467
CACCCCCCAAGTAGAGAGCAATTATGCACC	3.57
GGGACCTTGATGGCATTCTTGAGCTACCGC	-1.31
AGATATATCACCTGCCAGCTGTTATGAGTC	0.0406
CCCTATCCCCAGATTCCAGGGGAGGGTAAG	-1.31
CATCTAAGGACAAACTTTGTCACTGCAAAT	1.01
AACATGTAATCATTTGGGACAAAGTTCATC	4.93
AGATGGTCAAAGGTTGATGGTATGTTTCAG	3.86
AGAAGCTGTTGGAAAGGGCACTGATAACCT	-1.27
TTAACTGAACCTAGATTCCAGGAAGAAAGA	-1.27
CGGCTGGGGATGAAGGGGGCGGGGGCGAAA	-1.1
CTGGGAGATGAGCTCTGAACTAACAATTCT	-1.28
CCTCGGCCGGCCCGGCAGCCCTGCTCCCCG	-1.37
ATTGTGTCATTGGTATCCACAGAGTTCATA	1.74
CCAGGGCATTGCCGTTCAGGGCCACGGGAA	-1.39
CTTAGACCCCTGAATAGGTCTTGGAATGTG	1.85
ACAAGGAAAACAAGGTACAGAGAGTTTAAG	-1.36
GGCTGATTTCTCAGGAAGTGCTTGTTCCCT	0.658
GGGTACACATGGCCGTAAAGATAAGAACGC	-1.4

Sequence	binding signal (log2 normalized intensity)
TCCTTTTCATTCTTTAAGGACCACATCAAA	0.958
ACACATCTTCCATCGGACTTTGATCTGCCA	6.96
GCCTGGTCTGCACTCCAGGAAAGACGAGTG	0.837
GTCCTTCCCAAGTCCTGCATGTGTTCACAC	1.21
GCCCCACACTCCTGGGCTGTATGTTCTAAC	0.228
AGGAGGGATCTGGCAGGGGCGCGGCCTAAT	-1.1
GGACTTGGGACTCTGCAGACTGGTGCTATG	3.25
AATGATCTGACTCGGGTGTTCACAGGTGAC	0.776
ATCGGTCTTTACACATCTGTTAGGAATGTC	0.798
ACCTGAGGCCAAGCAGCTGTGATGAGGCCA	-1.39
CTAGCAAATCTGCCCAACCTTTGCCCCTGG	6.52
TTTGTCTCAGGAACTTTGTTTGTGTTTCCC	1.17
TTCAGGGTTAAAAGTTCTGCTGAGTATCCA	0.669
TTGTACCCTTCTTTCCACCCTGTTGCACAA	1.99
GAGTAGAGGTGACTTACATGCAGAGATACT	-1.44
TTGACCATTGTGTTAAAGGAATTCAGGACT	0.91
GCAAAGTTCAACCCTGAATGTGTGCTGGCC	1.12
ATAAAGTTAAGACCTACATTAAGACCACCT	-1.31
ACATTTTTGTCATCTTCACTTTTGTGGCCT	1.95
TAACTGCTGCATGTCATGACCTTCATCAAT	2.63
AAACGCTGAAGTCTCAAAGTTCACCACTTT	3.3
GACTCCACAGTGGGGCAGATCACAAGCACC	-1.43
TCTCATTCACACCCTCAGCTGATGGGTCTC	0.876
GGTTTGCTCTGCTACTGACCAGATGTTATT	0.93
CTTGGGGCTGATGTCTTTCTGGCTGGAGAG	0.237

Sequence	binding signal (log2 normalized intensity)
TTCCACCTGGAATGCACTTGTTCCGGATAG	0.694
CCCTTTCCTCATATTTTGCATACCAAGGGA	-0.00897
TGCACATTCCCTCCAGCAGGGGATGCCCTT	2.84
TCACAGCTATTGTATCTATCTCTATGTCCA	0.981
CCCAGTTAACTGGACAAGGAGGCTGGGCTG	-1.23
CAACAGGTATGCTCCAAAGATGATGCCTCA	-1.1
TTGTGCAAATGGAAAATTGTAATCTTCAGC	0.118
GGTGTGTTGCAACTTTGACTATAGCGTCTC	0.867
TCTCTGCTTGCAATTTTTGTTCAGTCATTG	0.587
GCAGTGTGGGGACCTGGACTCCCAAGATGG	0.0513
GAAGTTTGGCAATTACCCAACAGACTTTCC	-1.22
CCAACAAGGCAGGAGATTCCACATTCCCTT	-1.32
ACCAAACCTGAAAAACCTCTCTCCAGGTAC	-1.1
CCCCCCTCACACTTTGGCTACTCAGTTTTT	1.37
TGAAGTTCCAGAGCCTTCAAAGGAAAGCAG	-0.981
GGACTGTCCTTTGCTAGATTCTTTCTTCCT	0.57
CACAGAAGTGGACCTTCACCAGATACTGAA	2.19
CCCAGATATCTCTGGTAAACAGCTGACAAT	-1.15
GTACCATTCATGGACAGCCTTGCCACATGG	-1.27
GACCAGGAGTTTGGGATCAGACACGTGGGA	0.0935
TAGCCACTGCATGATAGGCCCATCTTCTTA	-1.42
CAATACTAGCAATAACCACAAGGGGGGAGC	-1.2
CTCACAGGTTGTACTATGACCCAAACTTCA	4.38
TGCTCCCTCCTGTGGTAATAAGTTGGTGGA	1.32
CAAGGTAACCCCCAACATTCTTTCCAGCTT	1.37

Sequence	binding signal (log2 normalized intensity)
AGTACAGCTTTTTGTTTGTGTAAGTGTGGG	1.89
TGCCCAGCTGCATCCTGTGCCTTGGTAGAG	-0.926
ATGCCTTGTCTAGTTAAGTGTTCAGCAAAT	0.962
GTGATAACCCCTATGTCTTCAGACTTCAAA	1.84
ATCAGGTTTCTCAAGTGATCGAAGGTCAAC	5.2
CTTCACACAAACATCACCTACCTGACTCCT	-1.29
AGCAATCTACTTTTCTTTTGGCATCTGTTG	1.46
CTGGATGCCCAGGGATTCCTGAAGATCGCA	-1.35
ATTCGTCCAGGGCCGCCCAAGCGAATATGT	-1.38
GGTGAGGGGAGCGTAAAACCACTGGCCCAT	-1.32
GCTGGACGCTGGTCAGCATCCTGCTTGTGA	-1.06
TTGCATAGGCATTGTCTTGAAAGATAAAGT	0.475
GTAATAAGCAGTAGACTAAAACCCATATCT	-1.23
AGCAGCAGGGTCAGAAGGGAGGTAGTCGCC	-1.29
GGAGGGTCTTGCTTTGATGTTGATGGTTGC	1.83
TAAGTTGAAGTGAGTTGTTTGTTTTGAGAT	1.17
AGTAGGATAAGTCCTTCCAAAGTCCTTCTA	3.04
GGGGGGAAGCTCTGTCACTTCTGGTTACCA	-1.36
CCCAGTGTCTCTGGGCGCTGGGAAGACAGT	-1.28
TAAACCACCCAATCCTGCAGCATTCCCTAC	-1.29
TGCATTAAAGTCACAAAGGTGGAACTCAAG	0.899
CACAAAGGGTTATGGGAAGTGGGGTAAGCA	-0.624
TGGGCTTCAGACATTGCAAATCTCTTCTTC	-1.22
TCTGTCTCATTCCCTGACAGACCCCTCCTA	4.36
CATCGAGGCCATCCCAGTTACTCAGCGAAT	-1.35

Sequence	binding signal (log2 normalized intensity)
TCTTGTTTCAGAGTAAATACGAACCGTCGT	1.2
GTGTGTGTGTGTGTGTGTGTATGCCATGCT	1.92
CGCCACTGCATTCCAGCCTGGGGCAATAGA	-1.27
GGAAATCCGAAATAAACTGAGGGGTGGGGA	-1.35
GTCCAAGGACTTATCCTTGGGACATTCTCA	-1.1
ATGACACCCATCATGAGTAGGTTTACTAAA	-0.916
TTAGGACAACATGAGTAAACGAGCTATTTA	-1.27
GGAAGGGATGGGGTGCAAACTCACCTGGAG	-1.4
TGGCCAAAGGGCACAAGAGGAATTGTTCAA	1.68
CGCTGCCTCCCACCCCCACGGTGCGCTGCC	4.26
TTTATTCACTTCTCAAAGGACAGATCAATG	1.26
GAGATGAAAGGGGCCTCAGAGAAAGCCTGT	-1.48
CAGGCAGATTTGACCTACGGACCATGGATC	4.04
TCAGAAACAGGAATTCAAAGGTGCAAAGGT	2.84
CTTTTTCTTCTGGGGACGCCCACTGCTTTG	-1.13
GCAGCACCTTGATGCTGGACTTCAGCCTCC	5.78
GACCAGTCTGCCTGACTCCAGAGTCCAAAC	4.23
GGGCAGCGCGGCGCGCTGGGAAGGCTCGTT	-1.3
CTATAAAACAGGAAAAAGGGACAAAACTTC	-1.34
CGTGGTTGATCAAAGGTTGGACTGAGGACC	3.73

Reference: paper PMC10726135
